In patent US20240002383A1 (priority 2021, published 2024):

Columns and labels:
[1] = tested on: SARS-CoV-2 RBD; conditions: mouse, in vivo
[2] = tested on: SARS-CoV-2 RBD; conditions: rabbit, in vivo

SMILES	production of the RBD-specific IgG2a antibodies (in words) [1]	immune response in mice (TH1 / TH2; cellular and humoral), in words [1]	binding antibodies relative to Alum (in words) [2]
CCn1nc(C)cc1C(=O)Nc1nc2cc(C(N)=O)cnc2n1C/C=C/Cn1c(NC(=O)c2cc(C)nn2CC)nc2cc(C(N)=O)cc(OCCCN3CCOCC3)c21 [CF501, (E)-3-(4-(5-carbamoyl-2-(1-ethyl-3-methyl-1H-pyrazole-5-carboxamido)-7-(3-morpholinopropoxy)-1H-benzo[d]imidazol-1-yl)but-2-en-1-yl)-2-(1-ethyl-3-methyl-1H-pyrazole-5-carboxamido)-3H-imidazo[4,5-b]pyridine-6-carboxamide]	can potently activate the production of the RBD-specific IgG2a antibodies	–	–
CCn1nc(C)cc1C(=O)Nc1nc2cc(C(N)=O)ccc2n1C/C=C/Cn1c(NC(=O)c2cc(C)nn2CC)nc2cc(C(N)=O)cnc21 [CF502, (E)-3-(4-(5-carbamoyl-2-(1-ethyl-3-methyl-1H-pyrazole-5-carboxamido)-1H-benzo[d]imidazol-1-yl)but-2-en-1-yl)-2-(1-ethyl-3-methyl-1H-pyrazole-5-carboxamido)-3H-imidazo[4,5-b]pyridine-6-carboxamide]	–	can significantly improve the TH1 and TH2 immune responses in mice	could not induce more potent binding antibodies relative to Alum in the rabbits
CCn1nc(C)cc1C(=O)Nc1nc2cc(C(N)=O)cnc2n1C/C=C/Cn1c(NC(=O)c2cc(C)nn2CC)nc2cc(C(N)=O)cc(OCCCN3CCNCC3)c21 [CF508, (E)-3-(4-(5-carbamoyl-2-(1-ethyl-3-methyl-1H-pyrazole-5-carboxamido)-7-(3-(piperazin-1-yl)propoxy)-1H-benzo[d]imidazol-1-yl)but-2-en-1-yl)-2-(1-ethyl-3-methyl-1H-pyrazole-5-carboxamido)-3H-imidazo[4,5-b]pyridine-6-carboxamide]	–	can significantly improve the TH1 and TH2 immune responses in mice	could not induce more potent binding antibodies relative to Alum in the rabbits
CCn1nc(C)cc1C(=O)Nc1nc2cc(C(N)=O)cnc2n1C/C=C/Cn1c(NC(=O)c2cc(C)nn2CC)nc2cc(C(N)=O)cc(OCCN3CCOCC3)c21 [CF510, (E)-3-(4-(5-carbamoyl-2-(1-ethyl-3-methyl-1H-pyrazole-5-carboxamido)-7-(2-morpholinoethoxy)-1H-benzo[d]imidazol-1-yl)but-2-en-1-yl)-2-(1-ethyl-3-methyl-1H-pyrazole-5-carboxamido)-3H-imidazo[4,5-b]pyridine-6-carboxamide]	–	can significantly improve the TH1 and TH2 immune responses in mice	could not induce more potent binding antibodies relative to Alum in the rabbits
CCn1nc(C)cc1C(=O)/N=c1\n(C)c2cc(C(N)=O)cnc2n1C/C=C/Cn1/c(=N/C(=O)c2cc(C)nn2CC)n(C)c2cc(C(N)=O)cc(OCCCN3CCOCC3)c21 [CF512, (E)-3-((E) 4-((E)-5-carbamoyl-2-((1-ethyl-3-methyl-1H-pyrazole-5-carbonyl)imino)-3-methyl-7-(3-morpholinopropoxy)-2,3-dihydro-1H-benzo[d]imidazol-1-yl)but-2-en-1-yl)-2-((1-ethyl-3-methyl-1H-pyrazole-5-carbonyl)imino)-1-methyl-2,3-dihydro-1H-imidazo[4,5-b]pyridine-6-carboxamide]	can potently activate the production of the RBD-specific IgG2a antibodies	–	could not induce more potent binding antibodies relative to Alum in the rabbits
